Source: the supplement of paper PMC3334620
The full ranking holds about 33,000 sequences; the median of “E-score (-0.5 to 0.5)” is about -0.012, and the highest 2% start at about 0.27. The list shows a part of the results.

These sequences were tested against T1, Vhr1 (UniProt P40522) (assay: PBM E-score (8-mer binding enrichment) (E-score (-0.5 to 0.5)); higher = stronger / more preferred TF binding; most listed sequences are background and not binding sites). Conditions: protein concentration: 200 nM; construct: GST-full length.
T1 sequence: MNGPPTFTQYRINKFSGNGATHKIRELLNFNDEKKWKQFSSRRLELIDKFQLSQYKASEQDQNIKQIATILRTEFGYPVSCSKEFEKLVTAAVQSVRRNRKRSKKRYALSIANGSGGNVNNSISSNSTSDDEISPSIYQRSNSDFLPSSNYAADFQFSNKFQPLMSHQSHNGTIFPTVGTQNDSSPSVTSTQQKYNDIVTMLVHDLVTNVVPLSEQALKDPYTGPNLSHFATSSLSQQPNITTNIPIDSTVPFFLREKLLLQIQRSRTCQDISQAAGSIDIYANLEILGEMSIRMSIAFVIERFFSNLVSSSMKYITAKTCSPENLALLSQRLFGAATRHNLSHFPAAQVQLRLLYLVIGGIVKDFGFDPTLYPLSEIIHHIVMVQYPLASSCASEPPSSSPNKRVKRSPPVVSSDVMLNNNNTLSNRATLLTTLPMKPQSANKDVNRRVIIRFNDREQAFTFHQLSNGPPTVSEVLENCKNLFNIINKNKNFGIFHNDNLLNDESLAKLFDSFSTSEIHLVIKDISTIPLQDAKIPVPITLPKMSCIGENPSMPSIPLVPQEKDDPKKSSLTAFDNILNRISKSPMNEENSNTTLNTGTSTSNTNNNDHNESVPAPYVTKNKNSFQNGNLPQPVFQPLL
In short: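 Each ungapped eight-base word and its reverse complement, pooled, received an E-score from the Universal PBM Analysis Suite. Underlying scans, normalised with masliner, recorded fluorescent anti-GST bound to GST-tagged yeast transcription factors. These were applied at about 100-200 nM to universal all-10-mer Agilent arrays double-stranded by primer extension.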

Sequence | PBM E-score
AACTACTA | 0.078
GGCACAGA | -0.092
AGCCGCCT | 0.111
CGCGGACG | -0.145
ACTCTGAT | 0.0653
ACTGGCGC | 0.0737
CCCTTCTA | -0.218
ATTGAACG | -0.0248
ATCGTTGC | -0.0671
CTGGTAAA | -0.00847
ACGCTTTG | -0.068
GCTATCCC | -0.137
CAGCCTAG | 0.0804
AAGCAAAT | -0.165
AGGACCAG | -0.133
ATCACGAG | -0.0506
AGCGTAAG | -0.188
CATGTCGC | -0.104
AGCTAGGC | -0.0605
ACGTCCCA | -0.131
ACTGCGAA | -0.322
AGGGTAGA | -0.0847
GGTACGGA | 0.0649
ATGACTAC | 0.462
CTAAGCGA | -0.136

Sequence | PBM E-score
CCAGTAAG | -0.0983
GCGCAGCA | -0.00237
GCTCCTAC | -0.125
GCAGCGAC | 0.167
GGTTGCCA | 0.141
AGCCCCCG | -0.234
ACAAGATA | 0.0549
CGCCAACG | -0.0405
GGACGGAA | 0.0124
CTGTATGC | -0.0249
GAAAGATC | -0.173
GGGGGGAA | 0.0392
CAATGAGG | -0.31
AGTGCTAT | 0.0504
CAATAGGC | -0.112
GGAAGGTA | -0.0276
GAGTAACC | 0.106
GAGGGGCA | -0.113
TGTATGAA | 0.0681
AACTTCAT | -0.0914
GGGATTCA | 0.134
CCTGTTCG | -0.153
CTCGTATA | 0.0512
CCACCTCG | -0.085
ACTGCCTA | 0.139

Sequence | PBM E-score
AAAAGTAA | -0.0719
CCGAAAGG | -0.0649
CACGACGG | 0.0606
CGATAGCC | -0.132
AGGTGAAT | 0.175
ACATCCAG | 0.101
AAGGCGCA | 0.0562
AGAGAAAC | -0.017
CCAATGCA | 0.0183
GTAAACGA | -0.0754
AACCGGCC | -0.071
GTGACTGA | 0.384
GCGAGAAA | -0.105
TAACGTCA | -0.055
CTGGGGCA | -0.115
AGAACCCC | -0.107
GGGCAATA | -0.0887
ATATCAGC | -0.0247
CGACTTTA | -0.138
TGAATGAA | 0.0893
AAAGACGG | -0.174
AACGTGTA | -0.0949
GCGGTGTA | 0.107
CTAGAAAG | -0.216
AGATACCT | -0.0877

Sequence | PBM E-score
CTAAACTC | -0.264
TCATTACA | 0.0618
ATTACATA | 0.124
AGATTACT | -0.00398
CGGGCAGA | 0.171
CACTCAAA | -0.0333
GAACAACA | 0.0642
AGAAGACG | 0.0127
CAGTGCGG | 0.0423
CTTTCTAC | -0.168
CATCAATC | 0.164
AGTGTGTG | 0.222
GAGGAACC | -0.126
CGCCTTCA | -0.173
AACTGGAA | -0.167
CCGCTTGC | 0.00952
AGCTCAGA | -0.0762
CAGGTTCC | -0.0388
GGTCTTAC | -0.0377
ACTTGGCC | -0.126
AATATGGA | 0.118
ATACAGCC | -0.00486
CACCCCGC | 0.0543
ACGCACCT | 0.0115
CTTGTGAC | 0.111

Sequence | PBM E-score
CCATACCA | -0.0322
ATGGACCG | 0.00926
CATGGTTC | 0.364
ATTGAGGC | -0.202
ACCATCTG | 0.148
CCTTCCTA | -0.259
AGAACGCG | 0.107
CCAGGAAA | -0.0395
CGCGCGAA | 0.101
CGCTTCTA | 0.0541
TGCTAGCA | -0.113
GCACACTA | 0.105
CCGCCTTC | 0.0298
GCGTTTAA | -0.23
AAGTGCGA | -0.0776
CCCGAAGG | 0.0654
CCACTGTC | -0.114
AGTTAAAG | -0.0442
AACACATG | 0.192
CTCAGCAA | -0.0205
CAGGGCTA | -0.13
AGTCTATA | 0.0436
AATTAAAG | -0.145
ACCGTGGC | -0.115
ATGATGAC | 0.303

Sequence | PBM E-score
AATCAAAG | -0.211
AAGCGAAA | -0.188
GACGGCGA | -0.00554
ACATTCCG | -0.114
AACGAAGT | -0.27
ACCGTATA | 0.0404
AGACGGAT | 0.0272
ATAGAAAA | -0.122
AAGCCGCT | -0.187
CAGAGGCA | -0.159
CGAATTCG | -0.164
GAACGCGA | 0.255
AGAGCAGA | -0.101
ATATGTAC | 0.161
CGCGCACC | 0.125
CCTGAATA | 0.211
CACACAGC | 0.307
AATATTGC | 0.0591
AATGACGA | -0.0492
AGCGCTCA | -0.0485
CCTTGTCA | -0.111
AAATGTGA | -0.117
AGATACTG | 0.0977
ACTCTCAC | 0.115
CATAATAA | -0.0188

Sequence | PBM E-score
AATTGCGT | -0.079
GACTACTC | 0.31
CCGTGCAG | -0.144
ATCTTGCA | 0.0657
CCGGACAC | -0.00587
GAAGCACC | -0.156
CGTCCAGA | -0.11
GCATATCC | 0.113
ACGTGTAC | -0.0566
AGTATAAT | 0.163
CTCGCCGA | 0.118
ATCGGATC | -0.0332
AGGCGTTA | -0.172
CAATCCAA | -0.0655
CAAAGATA | 0.0272
TACTACCA | 0.15
AGAACAAT | 0.0975
CGTATAGC | 0.113
ATTGGGAG | -0.115
ACCAAAGA | -0.0588
TAGCAATA | -0.0132
CACTACTC | 0.205
